# Measurements taken from the supplement of paper PMC12217912.
# Some of the results follow. The full chains were built here from the parent and the listed change. Values near 0.05 are background.
# B1: TEV protease; numbered along this chain (parent)
# chain: MGESLFKGPRDYNPISSSICHLTNESDGHTTSLYGIGFGPFIITNKHLFRRNNGTLVVQSLHGVFKVKDTTTLQQHLVDGRDMIIIRMPKDFPPFPQKLKFREPQREERICLVTTNFQTKSMSSMVSDTSCTFPSGDGIFWKHWIQTKDGQCGSPLVSTRDGFIVGIHSASNFTNTNNYFTSVPKNFMELLTNQEAQQWVSGWRLNADSVLWGGHKVFMVKPEEPFQPVKEATQL
# Variants of: B1
# Assay: raw area under fraction-flipped curve 0-4 h after induction (AUC4h, not background-subtracted), DNA-recorder readout of cleavage of the substrate (dimensionless); higher = more cleavage of the substrate by the protease variant
# Conditions: temperature: 34 °C; time window: 0-4 h after rhamnose induction
# Experimental: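 In vivo DNA recorder in E. coli TOP10(DE3) ΔrhaA at 34 °C. Each TEVp single-site mutant (parent TEVp 0) is paired with a single-site variant of the 7-mer TEVs (canonical ENLYFQ|S). The substrate sits between flexible linkers in a Bxb1-sfGFP-TEVs-SsrA fusion, so cleavage stabilises Bxb1 and speeds flipping of a recombination array, read by NGS. The value is the raw area under the fraction-flipped curve over 0-4 h after rhamnose induction (AUC4h), with ≥20 reads per time point. It is not background-subtracted; inactive controls average about 0.047.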
# 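Also: Bxb1 expression induced with 0.2% (w/v) L-rhamnose at OD600 near 0.5, cultures sampled hourly, flipped fraction per protease–substrate barcode pair counted by paired-end Illumina sequencing.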
Variant,area with substrate ENLYFQA,area with substrate ENLYFQC,area with substrate ENLYFQE,area with substrate ENLYFQF,area with substrate ENLYFQG,area with substrate ENLYFQH,area with substrate ENLYFQK,area with substrate ENLYFQL,area with substrate ENLYFQM,area with substrate ENLYFQN,area with substrate ENLYFQR,area with substrate ENLYFQS,area with substrate ENLYFQW,area with substrate ENLYFQD,area with substrate ENLYFQI,area with substrate ENLYFQT,area with substrate ENLYFQV,area with substrate ENLYFQY,area with substrate ENLYFQP,area with substrate ENLYFQQ
T233Q,0.133,0.0894,0.0638,0.0938,0.0796,0.08,0.0622,0.0602,0.135,0.0787,0.0642,0.105,0.0643,–,–,–,–,–,–,–
Q234S,0.168,0.129,–,0.0792,0.084,0.0744,0.058,0.062,0.0921,0.0748,0.0612,0.102,0.0766,0.0756,0.072,0.0707,0.0424,0.0788,–,–
Q234T,0.0857,0.109,–,0.102,0.0743,–,0.0633,0.0639,0.0678,0.0789,0.0629,0.0989,0.0635,0.0857,0.0662,0.0604,0.0715,0.0738,0.0508,0.0711
L235E,0.118,–,–,–,–,0.106,–,–,0.0828,0.0885,0.0552,0.119,–,0.0786,–,0.0891,–,–,–,–
L235Q,0.134,0.106,–,0.0813,0.114,0.0737,–,0.0655,–,0.114,0.0615,0.11,0.0774,–,0.0539,0.0689,0.0667,0.0669,0.0516,–
E3F,–,0.135,–,–,–,0.128,0.0604,0.0609,–,–,0.0783,0.128,–,–,0.0608,–,0.0616,0.0875,0.0222,–
S4I,–,0.138,–,0.0307,0.118,0.105,0.0675,0.0549,–,0.0589,0.0736,0.119,0.079,–,–,0.0724,–,0.103,–,0.0686
S4Y,–,0.123,–,0.11,–,0.094,–,0.066,0.118,–,0.0612,0.145,0.0715,0.0729,0.0653,0.0758,–,–,–,–
L5P,–,0.0403,–,0.0577,0.0649,0.076,–,–,–,–,0.0666,0.0659,–,–,0.0755,0.0668,0.0614,0.0522,–,–
P9C,–,0.13,–,0.0731,–,–,–,0.0667,0.085,0.0879,0.0671,0.101,–,–,0.0444,0.0667,–,0.093,0.0496,–
R10W,–,0.108,–,0.0678,0.11,0.0762,0.0673,0.0618,0.08,0.0842,0.0679,0.101,0.0749,–,0.0551,0.0604,0.0581,0.0737,–,0.0779
D11F,–,0.096,–,–,0.103,0.0765,0.0507,0.0534,0.116,0.0623,0.0608,0.0973,0.0536,–,0.046,0.0594,–,0.0714,0.0565,0.0691
N13M,–,0.114,–,–,–,0.0701,0.0679,0.0853,0.0972,0.0955,0.0541,0.107,–,0.0812,0.0512,0.0675,–,–,–,0.0945
